According to PubChem BioAssay AID1508624 (National Center for Advancing Translational Sciences (NCATS), 2021):
The campaign covered roughly 48,000 compounds. About 120 (0.25%) were called active. Another 4% or so got no clear call; they are omitted. Calls follow the shape of the dose curve; as a rule, active = well fitted activation curve with a large enough effect; inconclusive = small, poorly fitted or top-dose-only effect, or another doubt; inactive = no such curve, though single readings can be large or run the other way. This is one part of the list.

assay: Primary qHTS for Identification of Small Molecule Activators of Huntingtin-Antisense Promoter Activity; details: HEK293 HTT-AS promoter firefly luciferase reporter (activity 0% = vehicle and -100% = no light), 24 h; series mostly up to 57.5 µM; activity change, positive = activation: at the top concentration; also: nearly all actives have a fitted effect of over 55% in size
Outline: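 HEK293 cells carrying firefly luciferase reporters were seeded at 2,500 per well in Opti-MEM and cultured for 24 h. They were then treated with compounds at up to 57.5 uM final for 24 h at 37 degrees C before Dual-Glo luminescence readout.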

Activity change, positive = activation, inactive:
CC(=O)OC/C=C(C)/C=C/C=C(C)/C=C/C1=C(C)CCCC1(C)C 5.31%
Cc1ccc(Cl)cc1N(C)C(=O)c1cc2ccc3cccnc3c2[nH]1 -8.26%
CCNC(=O)CC1C(=O)N(c2ccc(F)cc2)C(=O)N1Cc1ccc(C)cc1 (stereo not drawn) -8.19%
CCCCOc1ccc(C(=O)NCCc2csc3nc(-c4ccccc4F)nn23)cc1 -11.4%
CCOc1ccccc1C(=O)NCC(c1ccc(N(C)C)cc1)N1CCCC1 (stereo not drawn) -5.63%
CSc1ccc(CCNC(=O)c2ccc3c(c2)c(C)c(C)n3Cc2ccc(F)cc2)cc1 -22.9%
CCn1c(CN2CCN(C)CC2)nc2cc(NC(=O)c3cc(OC)c(OC)c(OC)c3)ccc21 4.27%
CCOc1ccccc1C1Nc2ccccc2-c2nnc(SCc3ccccc3)nc2O1 (stereo not drawn) 25.4%
Cc1c(C(=O)NCc2ccccc2)oc2c1-c1[nH]ncc1CC2 16.5%
COc1ccc(Nc2cc(C(=O)NCCCN(C)C3CCCCC3)c3ccccc3n2)cc1 -22%
CCCN(C(=O)Cn1nc(Cc2ccncc2)c2ccccc2c1=O)c1ccccc1C -41.9%
CCOc1ccc(-c2nnc(SCC(=O)NCCc3ccccc3)nc2-c2ccc(OCC)c(OC)c2)cc1OC -9.59%
COc1ccc(Br)cc1CNC(=O)c1ccc(-n2c(C)cc3c2CCC(C)C3)cc1 (stereo not drawn) -0.0298%
COCCCn1c(=N)c(C(=O)NC2CCCC2)cc2c(=O)n3cc(C)ccc3nc21 -4.71%
Cc1cc(O)c(CN2CCN(c3ccc(F)cc3)CC2)c2oc(=O)cc(C)c12 -15.4%
Cc1cccc(C(=O)Nc2nnc(S(=O)(=O)N3c4ccccc4CC3C)s2)c1 (stereo not drawn) -68.6%
CCOc1ccc(OCC)c(NC(=O)c2c(C)nn(-c3ccccc3)c2-n2cccc2)c1 -31.7%
COc1ccc(CCCc2nnc(SCC(=O)Nc3ccc(Cl)cc3)o2)cc1 -0.124%
Cc1nn(C)c2c1c(C(F)(F)F)cc(=O)n2CC(=O)NC(C)(C)C -6.74%
Cc1oc2ncnc(N3CCCCC3)c2c1C(=O)Nc1cccc(F)c1 -19.4%
CCc1ccc(CNC(=O)c2sc3ncnc(N(C)C4CCCCC4)c3c2C)cc1 -4.39%
COc1ccc(-c2cc(-c3ccc(F)cc3)nc3c2COc2ccccc2-3)cc1 -8.69%
Cc1ccccc1CN1C(=O)C(O)(CC(=O)c2cccc(Br)c2)c2ccccc21 (stereo not drawn) -29.2%
O=C(NC1CCCCC1)/C(=C/c1ccc(Cl)cc1)NC(=O)c1ccccc1 -10%
COc1cccc(CNC(=O)c2ccc(CS(=O)Cc3ccc(Cl)cc3)o2)c1 (stereo not drawn) -23%
Cc1ccc(C(=O)CSc2nnc3ccc4ccccc4n23)cc1 6.85%
N#Cc1cc2c(=O)n3ccccc3nc2n(-c2nnc(SCc3ccccc3)s2)c1=O 3.36%
COc1cccc2nc(-c3cccs3)nc(NN3C(=O)C=C(C)C3=O)c12 -74.8%
Cc1ccc(CNC(=O)C2CCN(c3ncnc4c3nc3n4CCCCC3)CC2)cc1 -2.13%
CCOC(=O)C1CCCN(S(=O)(=O)c2cc(-c3cc(C)no3)ccc2C)C1 (stereo not drawn) -35.6%
CCC(=O)N1c2ccc(S(=O)(=O)N3CCN(c4ccccc4Cl)CC3)cc2CC1C (stereo not drawn) -40.5%
CCn1c(=O)cc(OCC(=O)Nc2ccccc2Cl)c2ccccc21 -36.7%
CCOc1ccc(CCNC(=O)c2nn(-c3ccc(OC)cc3)c(=O)c3c2c2ccccc2n3C)cc1OCC -9.94%
Cc1ccc2[nH]c3c(=O)n(CC(=O)N(C)Cc4ccccc4)ncc3c2c1 -16.4%
O=C(Cc1ccc(F)cc1)NCCc1csc(-c2ccc(C(F)(F)F)cc2)n1 -34.6%
CCOC(=O)c1cnc(NCc2ccc(Cl)cc2)c2ccccc12 -12.2%
Cn1c(CN2CCCCC2)nc2cc(NC(=O)c3ccc(Cl)cc3)ccc21 -39.1%
CCN(CC)C(=O)c1ccccc1NC(=O)c1cccc(S(=O)(=O)N2CCC(C)CC2)c1 -9.16%
Cc1ccc(S(=O)(=O)N2CCCc3cc(NC(=O)c4c(F)cccc4F)ccc32)cc1 -18%
Cc1nn(CC(=O)NCc2ccccc2Br)c(=O)c2cc3occc3n12 0.475%
CCc1ccc(C2=C(C)C(N3CCC(C(=O)NCc4ccc(C)o4)CC3)=NS2(=O)=O)cc1 -9.83%
CCCCNC(=O)[C@@H](c1ccccc1)N1Cc2ccccc2C1=O -5.67%
Cc1ccc(Cl)cc1-n1ncc2c(N3CCC(C(N)=O)CC3)ncnc21 -23.1%
Cc1cccc(OCCCCn2c(C3CC(=O)N(c4ccc(C)cc4C)C3)nc3ccccc32)c1 (stereo not drawn) -59.1%
O=C(CCn1c(=O)c2cccn2c2cccnc21)N1CCN(c2ccc(Cl)cc2)CC1 -13.9%
CNc1oc(/C=C/c2cc(OC)c(OC)c(OC)c2)nc1C#N 3.06%
CCOc1ccccc1NC(=O)CSc1nccn1Cc1ccc(F)cc1 -16.3%
O=C(OCC1CCCO1)c1ccc2c(c1)N(Cc1ccccc1F)C(=O)c1ccccc1S2(=O)=O (stereo not drawn) -8.72%
Cc1ccccc1C(=O)Nc1ccc(C(=O)OCc2cc(=O)n3c4c(sc3n2)CCCC4)cc1 -37%
Cc1ccc(-n2c(=O)c3ccc(C(=O)NCc4ccccc4Cl)cc3n(CC(N)=O)c2=O)cc1 -53.1%
Cc1ccc(C(=O)Nc2ccc(F)cc2)cc1S(=O)(=O)N1CCOCC1 4.12%
Cc1cccc(CNC(=O)c2cnc3sc(N4CCOCC4)nn3c2=O)c1 -4.89%
Cc1cccc(C)c1Nc1c(-c2ccccc2O)nc2ncccn12 -28.6%
Cc1ccccc1CNC(=O)c1ccc2c(c1)N(Cc1ccccc1)CCS2 -20.3%
CCCCCCCCCCCCCCCCCC(=O)O 1.95%
O=C(CCCn1c(=O)c2cccn2c2cccnc21)Nc1ccccc1Br -9.59%
O=c1oc2ccc3ccccc3c2cc1-c1nnc(Nc2cccc(F)c2)s1 16.3%
CCN1CCOC(=O)C1CC(=O)Nc1cc(Cl)ccc1OC (stereo not drawn) -20%
CCCCn1c(=O)c2oc3ccccc3c2n(CC(=O)Nc2ccccc2OC)c1=O -10.9%
CCOC(=O)c1c(NC(=O)/C=C/c2ccc(OCC)cc2)sc2c1CCC2 -4.01%
Cc1ccc(CNC(=O)Cn2cc(C(=O)c3ccc(Cl)cc3)c(=O)c3ccc(C)nc32)cc1 -7.86%
COc1cc(OC)c(NC(=O)NCCn2nnc3cc(S(=O)(=O)N(C)C)ccc32)cc1Cl -3.61%
COc1ccc(-c2nn3c(=O)cc(CN4CCN(C(=O)Nc5cc(C)ccc5C)CC4)nc3s2)cc1 -9.8%
